# B1: c5D7/Tap18Hr1: ADC of chimeric anti-transferrin receptor antibody c5D7 conjugated to monomethyl dolastatin 10 via piperazine containing linker (Tap-18Hr1, Table 5) (conjugate)
# heavy: EVQLQQSGPEVVKPGASMKMSCKTSGYKFTGYYMDWVKQSLGASFEWIGRVIPSNGDTRYNQKFEGKATLTVDRSSSTAYMELNSLTSEDSAVYYCARKPLSGNAADYWGQGTSVTVST[letters of human IgG1 constant region omitted]
# light: ETTVTQSPASLSVATGEKVTIRCITSTDIDDDMNWYQQKPGEPPKLLISDGNTLRPGVPSRFSSSGYGTDFVFTIENTLSEDITDYYCMQSDNMPFTFGSGTKLEIKRTVAAPSVFIFPPSDEQLKSGTASVVCLLNNFYPREAKVQWKVDNALQSGNSQESVTEQDSKDSTYSLSSTLTLSKADYEKHKVYACEVTHQGLSSPVTKSFNRGEC
# Key:
# [1] = tested on: colorectal cancer cell line DLD-1; test: In-vitro cytotoxicity by WST-1 assay, DLD-1; assay type: cell-based; conditions: DLD-1 (binding-positive), Table 6, below 10% is background
# Procedure: The colorectal cancer cell line DLD-1 (BCRC, Cat. No. 60132) was cultured in RPMI Medium 1640 supplemented with 10% FBS, 1 mM sodium pyruvate (GIBCO, Cat. No. 11360), and 100 U/mL penicillin/100 μg/mL streptomycin.
# (§1) In-Vitro Cytotoxicity by WST-1 Assay
# (§2) Cancer cells SNU-16, Panc 02.03B, COLO 205 and SW480 were seeded 1×10^4, 3×10^3, 2×10^4 and 1.2×10^4 cells/well, respectively, on 96-well microtiter plates. Cancer cells DLD-1 and PANC-1 were seeded 1×10^4 cells/well on 96-well microtiter plates. h5F1Ca.1/Tap18H ADC, h5F1Ca.1/Tap18Hr1 or naked antibody h5F1Ca.1 were added in triplicate at final concentration of 3 μg/mL and 1 μg/mL or final indicated concentrations and a final volume 200 μL/well. Cells were then incubated at 37° C. and 5% CO2, and cell viability was detected at 72 hours or 96 hours by cell proliferation reagent WST-1 (Roche (Nutley, N.J.), Cat. No. 11644807001) following manufacturer's instructions. In brief, at the end of incubation 100 μL, of medium was withdrawn and 10 μL/well of WST-1 was added to the tested cell line. After optimal color development (when OD450 of untreated control ≥1.00), absorbance at 450 nm (OD450 value) was measured by spectrophotometer (Molecular Devices (Sunnyvale, Calif.), VERSAmax microplate reader). The mean of the triplicates was obtained and background (medium control) was subtracted. […]
# [2] = tested on: colorectal cancer DLD-1; test: ADC treatment in DLD-1 subcutaneous xenograft model; assay type: in vivo, C.B-17 SCID mice; conditions: DLD-1 xenograft, SCID mice, 3 mg/kg intravenously at days 1 and 5; vehicle approached 500 mm^3 at day 14
# [3] = DLD-1 xenograft, SCID mice, 3 mg/kg at days 1 and 5, after treatment
# Procedure: To establish a subcutaneous xenograft model, 5×10^6 DLD-1 colorectal cancer cells were implanted into the right flank of C.B-17 SCID mice (Lasco, Taipei, Taiwan). Drug-conjugated c5D7 ADC was administered intravenously at 3 mg/kg at days 1 and 5 post tumor inoculation. Tumor volume was measured twice weekly with a caliper in two perpendicular dimensions, and calculated according to the formula (0.52×length×width×width).
# [4] = tested on: pancreatic cancer cell line PANC-1; test: In-vitro cytotoxicity by WST-1 assay, PANC-1; assay type: cell-based; conditions: PANC-1 (binding-negative), Table 6, below 10% is background
# Procedure: The pancreatic cancer cell line PANC-1 (BCRC, Cat. No. 60284) was cultured in Dulbecco's modified Eagle's medium (GIBCO, Cat. No. 11965) supplemented with 10% FBS and 100 U/mL penicillin/100 μg/mL streptomycin.
# as §1, §2
molecule,measurement,setting,value
B1,% inhibition,[1]; 0.1 μg/mL,35.4%
same,% inhibition,[1]; 0.3 μg/mL,62.0%
same,tumor growth,[2],completely suppressed tumor growth
same,body weight,[3],remained unchanged
same,"body weight, average",[3],25 g
same,% inhibition,[4]; 0.1 μg/mL,2.9%
same,% inhibition,[4]; 0.3 μg/mL,1.4%
